Screen size: about 380,000 compounds; about 4,000 (1.1%) were called active. The shares of active, inactive and inconclusive entries below differ from those in the screen. Calls come from the whole dose curve; as a rule, active = well fitted activation curve with a large enough effect; inconclusive = small, poorly fitted or top-dose-only effect; inactive = no such curve, though single readings can be large or run the other way. Where the call is inconclusive, the potency comes from a doubtful curve fit.
Assay: qHTS Assay to Identify Small Molecule Activators of BRCA1 Expression; note: nearly all actives have a fitted effect of over 80% in size
Conditions: MCF7-BRCA1-FFLuc reporter, luminescence, 48 h; series mostly up to 46.1 µM
Summary of the method: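 First, MCF7-BRCA1-FFLuc cells (2000/well) attach for 2 h; next, compounds are pin-added and incubated 48 h at 37 °C; finally, luciferase reagent is added and luminescence read after 15 min.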
Potency is the fitted concentration of half-maximal effect; tags give direction and shape of the fitted curve.

SMILES | Potency
Oc1ccc(/C=N/Nc2nccnc2Cl)cc1 | inactive
COc1ccc(C(O)c2ncc(-c3ccccc3Cl)[nH]2)cc1F (stereo not drawn) | inactive
Cc1ccccc1OCc1nc(-c2ccccc2)no1 | inconclusive: 11.2 µM [activator, partial curve, poor fit]
CCOc1ccc(CCNC(=O)COc2cccc(-n3cnnn3)c2)cc1OCC | inconclusive: 35.5 µM [activator, partial curve, poor fit]
CNCC(=O)Nc1ccc(OC(F)(F)F)cc1 | inactive
Cc1ccc(C(=O)Nc2nnc(C)s2)cc1 | inconclusive: 1.58 µM [activator, partial curve, poor fit]
CC(=O)c1cccc(NC(=O)Nc2ccccc2)c1 | inconclusive: 11.2 µM [activator, partial curve, poor fit]
N#C/C(=C\c1ccc(OCc2ccccc2)cc1)C(N)=O | inconclusive: 22.4 µM [activator, single point]
COc1ccc(C2=NN(c3ccccc3)C(c3ccc(OC)c(OC)c3)C2)cc1 (stereo not drawn) | active: 10 µM
N/C(=N\OC(=O)CSc1ccccc1)c1cccc([N+](=O)[O-])c1 | active: 12.6 µM
CC(=O)N(C)c1nc(-c2ccc(Cl)cc2)cs1 | inconclusive: 12.6 µM [activator, partial curve, poor fit]
O=C(N/N=C(\c1ccccc1)c1cccnc1)c1cccc(F)c1 | inactive
O=C(N/N=C/c1ccc2c(c1)OCO2)C1CC1 | active: 7.94 µM
CN(CC(=O)Nc1ccccc1Cl)C(=O)c1cccc(S(=O)(=O)N2CCN(c3ccccc3)CC2)c1 | inactive
COc1ccc(-c2noc(-c3cccnc3NCc3ccco3)n2)cc1 | inconclusive: 17.8 µM [activator, single point]
O=S(=O)(Nc1ccc(-c2nc3cccnc3s2)cc1)c1ccccc1F | active: 10 µM
CC(C)(C)c1ccc(OCCn2ccccc2=O)cc1 | inconclusive: 2.24 µM [activator, full curve, poor fit]
Cc1ccccc1Nc1nc(N)nc(-c2oc3ccccc3c2C)n1 | inconclusive: 1.58 µM [activator, partial curve, poor fit]
Nc1cccc(-c2cnc3ccccc3n2)c1 | inconclusive: 2 µM [activator, full curve, poor fit]
Cc1cc(CNC(=O)c2cc(COc3ccc(F)c(F)c3)on2)nn1C | active: 8.91 µM
O=C(Cc1ccccc1)n1nc(-c2ccccc2)nc1NCc1ccco1 | inconclusive: 17.8 µM [activator, single point]
OC(c1ccccc1)c1nc(-c2ccc3c(c2)OCO3)cs1 (stereo not drawn) | inconclusive: 7.08 µM [activator, partial curve, poor fit]
CCOC(=O)C1=C(CNCc2ccc(C)cc2)NC(=O)NC1c1ccc(OC)cc1 (stereo not drawn) | inactive
CCc1ccc(NC(=O)C(=O)c2cn(CC(=O)N3CCCCC3)c3ccccc23)cc1 | inactive
Cc1ccc(NC(=O)c2ncn(CC(=O)NCc3ccc4[nH]ccc4c3)n2)cc1C | inconclusive: 35.5 µM [activator, single point]

SMILES | Potency
COc1ccc(NC(C)C(=O)N/N=C/c2ccccc2OCc2cccc(Br)c2)cc1 (stereo not drawn) | inactive
COc1cc(OC)cc(-c2noc(-c3csc([C@@H]4C[C@H](O)[C@@H](CO)O4)n3)n2)c1 | active: 10 µM
Cc1ccc(C(=O)CC(Nc2ccc(F)cc2)c2ccccc2)cc1 (stereo not drawn) | inactive
CN(Cc1ccccc1)Cc1cc(=O)oc2ccccc12 | inconclusive: 22.4 µM [activator, single point]
O=c1c(-c2ccc(Cl)cc2)c[nH]n1-c1ccccc1 | inconclusive: 15.8 µM [activator, partial curve, poor fit]
Nc1c2c(nc3sc4c(c13)CCCC4)-c1ccccc1CC2 | inconclusive: 0.631 µM [activator, full curve, poor fit]
COc1cccc(/C=C/C(=O)Nc2ccc3c(c2)OCCO3)c1OC | inconclusive: 1.26 µM [activator, full curve, poor fit]
O=C(Nc1ccc(N2CCCC2)cc1)c1ccc(Br)o1 | inconclusive: 35.5 µM [activator, partial curve, poor fit]
CCCC(=O)N1CCc2cc(-c3nc(N)sc3C)ccc21 | inconclusive: 7.08 µM [activator, partial curve, poor fit]
Cc1cc(C)nc(N/N=C/c2cccc(Cl)c2)n1 | inconclusive: 12.6 µM [activator, single point]
O=C(Nc1ccc2c(c1)OCO2)c1ccccn1 | inconclusive: 1.58 µM [activator, partial curve, poor fit]
Cc1ccc(C(=O)NCCSC(C)(C)C)cc1[N+](=O)[O-] | active: 11.2 µM
Cc1ccc(NC(=S)NC(=O)c2cccs2)cc1F | active: 3.55 µM
NC(=N\N=Cc1ccccc1)/C(N)=N/N=Cc1ccccc1 | inconclusive: 35.5 µM [activator, single point]
CCn1c(SCCN2CCCCC2)nnc1-c1ccc(S(=O)(=O)N2CCOCC2)cc1 | inactive
CC1CCN(C(=O)c2cc3ccccc3o2)CC1 | active: 11.2 µM
COc1ccc(OCCSc2nnc(CCNC(=O)c3ccc(OC)cc3)n2C)cc1 | inactive
O=C(CCc1nnc(C2(c3ccc(Cl)cc3)CCC2)o1)N1CCCC1 | inconclusive: 14.1 µM [activator, partial curve, poor fit]
c1csc(-c2nc(CN3CCSCC3)cs2)c1 | inconclusive: 1.26 µM [activator, partial curve, poor fit]
Cc1cc(NC(=O)CSc2nnnn2Cc2ccccc2)no1 | inactive
COc1cc(/C=N/n2c(-c3ccc4c(c3)NC(=O)CO4)csc2=Nc2cccc(C)c2)ccc1O | inactive
Cc1ccc(-c2cc3ccccc3nc2N)cc1 | active: 10 µM
O=C(CSc1cccc[n+]1[O-])c1ccc(-c2ccccc2)cc1 | inconclusive: 5.62 µM [activator, partial curve, poor fit]
COc1ccc(NC(=O)c2coc(C)c2)cc1 | active: 5.62 µM
CCc1ccc(NC(=O)CCc2c(C)nn(-c3ccc(N4CCCCC4)nn3)c2C)cc1 | inconclusive: 7.94 µM [activator, partial curve, poor fit]

SMILES | Potency
CCn1cnc2cc(NCc3cccs3)ccc21 | active: 14.1 µM
CSc1nsc(/C=C/Nc2ccc(F)cc2)c1C#N | inactive
CS(=O)(=O)C1=NN2C(=N)/C(=C\c3ccc(OCCOc4ccccc4)cc3)C(=O)N=C2S1 | inconclusive: 22.4 µM [activator, single point]
O=C(Nc1ccc(-c2nc3ncccc3o2)cc1)c1ccco1 | inconclusive: 7.94 µM [activator, partial curve, poor fit]
COc1ccc(/C(N)=N/OC(=O)C2CCCCC2)cc1 | inconclusive: 2.24 µM [activator, full curve, poor fit]
COCCN(C(=O)c1ccco1)c1nc(-c2ccc(OC)cc2)cs1 | inconclusive: 14.1 µM [activator, partial curve, poor fit]
CSc1nc(-c2ccc(Cl)cc2)nn1S(=O)(=O)c1ccccc1 | inconclusive: 4.47 µM [activator, partial curve, poor fit]
COc1ccc(-c2cn3ccccc3n2)cc1[N+](=O)[O-] | inconclusive: 2.51 µM [activator, full curve, poor fit]
Cc1ccc(NC(=O)CSc2nc3ccccc3nc2Cc2ccccc2)c(C)c1 | inactive
Cc1ccc2nc(-c3ccccn3)oc2c1 | inconclusive: 1.26 µM [activator, full curve, poor fit]
CCOc1ccc2nc(NC(=O)CN3C(=O)NC4(CCCC4)C3=O)sc2c1 | inconclusive: 14.1 µM [activator, partial curve, poor fit]
O=C(C1=C[C@@H](c2ccc(Br)cc2)C[C@@H](OCc2ccc(CO)cc2)O1)N1CCN(Cc2ccccc2)CC1 | inactive
COc1ccc(C(=O)NCC2OCCc3ccccc32)c(O)c1 (stereo not drawn) | active: 11.2 µM
CCN1CCN(C(=O)c2cc(COc3ccc(C(C)=O)cc3OC)on2)CC1 | inconclusive: 10 µM [activator, partial curve, poor fit]
CCCCNc1nc2cccnc2s1 | inconclusive: 35.5 µM [activator, single point]
COc1ccc(/C=C(\C#N)c2nc3ccccc3[nH]2)cc1O | inconclusive: 22.4 µM [activator, single point]
Clc1ccc(SCc2nc3ccccc3[nH]2)cc1 | inconclusive: 7.08 µM [activator, partial curve, poor fit]
Cc1cc(C)nc(Nc2n[nH]c(-c3ccccc3C)n2)n1 | inconclusive: 10 µM [activator, partial curve, poor fit]
O=C(CSc1nc(Nc2ccccc2)nc(N2CCOCC2)n1)Nc1cccc([N+](=O)[O-])c1 | inactive
Cc1cccc(C)c1NC(=O)/C(C#N)=C/c1ccc(-c2ccc(C(=O)O)cc2)o1 | inconclusive: 14.1 µM [activator, partial curve, poor fit]
CSc1nsc(SCC(=O)N2CCCCC2)n1 | inconclusive: 15.8 µM [activator, partial curve, poor fit]
Cc1nn(-c2ccccc2)c(C)c1/C=N/NC(=O)CSc1nnc(SCc2ccccc2Cl)s1 | active: 12.6 µM
COCCCNC(=O)CNC(=S)N(Cc1ccc(F)cc1)C1CCCCC1 | inactive
